In PMC4336329 (PLoS ONE, 2015):
Out of some 310,000 compounds screened, about 14,000 (4.5%) showed an effect of 50% or more. The effect is printed as a negative number. The list shows a part of the results.

Target: human ether-à-go-go-related gene (hERG) potassium channel (human, UniProt Q12809)
Test: primary screen, population patch clamp on CHO cells stably expressing hERG
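Note: peak tail current of the secondary pulse compared with the same well before compound.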

human ether-à-go-go-related gene (hERG) potassium channel, sequence (Q12809 whole entry, looked up): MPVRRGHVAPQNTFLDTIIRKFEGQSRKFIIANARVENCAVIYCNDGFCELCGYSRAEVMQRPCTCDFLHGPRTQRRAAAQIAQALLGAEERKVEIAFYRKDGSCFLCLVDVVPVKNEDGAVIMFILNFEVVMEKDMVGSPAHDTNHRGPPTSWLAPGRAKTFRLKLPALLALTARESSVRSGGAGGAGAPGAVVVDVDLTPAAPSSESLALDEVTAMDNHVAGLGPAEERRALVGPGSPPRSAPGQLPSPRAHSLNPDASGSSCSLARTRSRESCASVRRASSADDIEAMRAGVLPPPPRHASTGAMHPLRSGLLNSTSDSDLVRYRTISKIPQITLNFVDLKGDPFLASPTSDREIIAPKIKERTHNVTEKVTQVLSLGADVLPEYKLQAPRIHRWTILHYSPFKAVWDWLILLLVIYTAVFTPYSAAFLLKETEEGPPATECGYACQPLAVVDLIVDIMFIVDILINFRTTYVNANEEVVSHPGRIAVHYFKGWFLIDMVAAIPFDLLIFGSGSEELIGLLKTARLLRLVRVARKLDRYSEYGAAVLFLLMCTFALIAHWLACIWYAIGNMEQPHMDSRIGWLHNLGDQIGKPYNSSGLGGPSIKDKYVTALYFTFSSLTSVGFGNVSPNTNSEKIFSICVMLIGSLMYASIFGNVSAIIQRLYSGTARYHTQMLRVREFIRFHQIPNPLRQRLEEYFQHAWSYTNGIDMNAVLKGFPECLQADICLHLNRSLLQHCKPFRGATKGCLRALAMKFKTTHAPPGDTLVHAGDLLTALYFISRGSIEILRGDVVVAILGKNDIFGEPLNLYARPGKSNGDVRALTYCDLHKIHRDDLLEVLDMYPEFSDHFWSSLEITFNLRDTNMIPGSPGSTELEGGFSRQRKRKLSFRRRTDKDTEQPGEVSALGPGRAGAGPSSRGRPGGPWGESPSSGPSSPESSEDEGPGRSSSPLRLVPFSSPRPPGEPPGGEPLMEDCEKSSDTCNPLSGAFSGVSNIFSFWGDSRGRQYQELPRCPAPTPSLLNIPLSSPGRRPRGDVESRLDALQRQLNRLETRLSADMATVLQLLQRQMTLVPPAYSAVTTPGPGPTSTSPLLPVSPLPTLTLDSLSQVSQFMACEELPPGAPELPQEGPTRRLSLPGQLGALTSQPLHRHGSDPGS

SMILES | hERG current change (%, negative = inhibition) at 10uM [%]
NC(=O)CSc1nnc(COc2ccc3ccccc3c2)o1 | 18.6
CCC1(CC)NC(=O)N(CC(=O)N2CCN(S(=O)(=O)c3cccc(F)c3)CC2)C1=O | 7.12
COc1ccc(N(Cc2ccccc2)S(=O)(=O)c2ccc(C)cc2)cc1 | 6.2
Cc1cc(C)n2nc(C(=O)N/N=C/c3cccc(Cl)c3)nc2n1 | -23.4
O=C(COC(=O)c1ccc(Cl)nc1)NCc1cccs1 | 20.2
O=C(c1ccccc1Cl)c1c(O)c2ccccc2oc1=O | -3.19
COCCCN1C(=O)C(=O)/C(=C(/O)c2ccc(S(=O)(=O)N3CCCCC3)cc2)C1c1ccc(F)cc1 (stereo not shown) | 15.2
COc1ccc(NS(=O)(=O)c2ccc(NS(=O)(=O)c3cccc(C(=O)O)c3)cc2)cc1 | 17.4
CC1=CC(C)(C)N(C(=O)CN2C(=O)CCC2=O)c2ccc(C)cc21 | -15.4
Cc1cc(C)c2nc(N(CCCN(C)C)C(=O)c3ccc(S(=O)(=O)N4CC(C)OC(C)C4)cc3)sc2c1.Cl (stereo not shown) | -33.7
Cn1c(=O)c2c(SCc3cccnc3)nc(C3CC3)nc2n(C)c1=O | -9.63
CC(=O)Nc1ccc(NC(=O)C(C)Oc2ccc(C)nc2[N+](=O)[O-])cc1 (stereo not shown) | 3.14
O=C(Nc1ccccc1N1CCOCC1)c1ccc(OCc2cscn2)cc1 | -17.5
COCCN(Cc1nc2ccccc2c(=O)[nH]1)C(=O)COc1cccc(C(C)=O)c1 | -23
CCN(CC(=O)NCc1ccc(F)cc1)C(=O)C1CC1C (stereo not shown) | -1.06
COCCSc1nnc(NC(=O)c2cc(C(=O)OC)cc([N+](=O)[O-])c2)s1 | 11.4
CC(OC(=O)c1cccs1)C(=O)NCc1ccco1 (stereo not shown) | -5.28
O=C(NCCC1=CCCCC1)c1ccc(-n2cncn2)cc1 | -29.2
C=CCN(CC=C)S(=O)(=O)c1ccc(C(=O)Nc2nnc(COC)o2)cc1 | 14.2
COc1ccc(-c2cc(C(=O)N3CCCc4ccccc43)no2)cc1OC | -16
COc1cc(C(=O)Nc2ccc3c(c2)C(=O)N(CCC(=O)O)C3=O)cc(OC)c1OC | -1.57
CC(C)(C)OC(=O)N[C@@H](C(=O)OC(C)(C)C)c1ccc(C(F)(F)F)cc1 | 1.97

SMILES | hERG current change (%, negative = inhibition) at 10uM [%]
CCNC(=O)C(=O)Nc1cc2c3c(c1)CCC(=O)N3CCC2 | 19.8
CC(C)c1ccc(NC(=O)CNC(=O)Cn2ccc3ccccc3c2=O)cc1 | 16.7
Oc1ccc(C=Nc2ccc3ncccc3c2)c(O)c1 | 3.7
CCOC(=O)CNC(=O)N1CCCC(C(=O)c2ccccc2SC)C1 (stereo not shown) | 7.47
Cc1cc(-c2nn(-c3ccccc3F)cc2CN2CCCC(O)C2)c(C)s1 (stereo not shown) | -9.16
Cn1c(C(O)c2ccc3c(c2)OCO3)nc2ccccc21 (stereo not shown) | 5.63
CCc1c(C)nc2ncnn2c1N1CCC(C(=O)NCc2cccc(OC)c2)CC1 | -38.6
O=C1c2ccccc2C(=O)N1CCc1nc(-c2ccncc2)no1 | -13.9
Cc1cc(N2CCOCC2)n2ncc(-c3ccccc3)c2n1 | -18.5
C=C(C)c1cccc(C(C)(C)NC(=O)Nc2ccc(Cl)cn2)c1 | -3.58
CC(=O)CCn1c(=O)n(CCC(C)=O)c(=O)n(CCC(C)=O)c1=O | 10.7
COc1ccc(CN2C(=O)c3ccccc3C2C(=O)NC2CCCC2)c(OC)c1 (stereo not shown) | -6.02
COC(=O)c1nnn(-c2ccc(F)c(Cl)c2)c1C(=O)OC | 13.3
O=C(COC(=O)/C=C/c1ccccc1Cl)NC1CCCC1 | 14.6
CCOC(=O)C(C(=O)Nc1ccc(C)cc1)C1CCCCC1 (stereo not shown) | 0.407
Cc1cc(-c2ccco2)n(CC(=O)NCCN(C)C)n1 | 19.2
Cc1ccc(Cl)cc1N1CCN(S(=O)(=O)c2c(C)[nH]c(C)c2C(=O)N2CCCCC2)CC1 | 12.9
CC1CCCCC1NC(=O)c1ccc(S(=O)(=O)N2CCN(C)CC2)cc1 (stereo not shown) | 6.01
CC(C)n1cc(CN2CCCC(CO)(Cc3cccc(Cl)c3)C2)cn1 (stereo not shown) | -24
Fc1ccc2cnc(-c3ccccc3)c(-c3cccc(C(F)(F)F)c3)c2c1 | 22.3
Cc1cccc(C)c1NC(=O)CSc1nnc(-c2cnccn2)n1C | 15.2
